Results as given in PubChem BioAssay AID1159614 (National Center for Advancing Translational Sciences (NCATS), 2016).
Screen size: about 45,000 compounds; about 65 (0.1%) were called active. The call rests on the fitted dose curve; in most records, active means well fitted activation curve with a large enough effect; inconclusive means small, poorly fitted or top-dose-only effect; inactive means no such curve, though single readings can be large or run the other way. The list shows a part of the results.

target: Galactocerebrosidase (Homo sapiens) (UniProt P54803); assay: A Novel Cell-Based Assay to Identify Small Molecules for B -Galactocerebrosidase; conditions: 145M-Twi-hGALC-G270D cells (Twitcher mouse brain line with human GALC G270D), HMU-beta-Gal fluorescence, 48 h; series mostly up to 57.5 µM; activation: at the top concentration; further: 0% is about no effect; nearly all actives have a fitted effect of over 65% in size
Sequence of UniProt P54803 (P54803 whole entry, looked up): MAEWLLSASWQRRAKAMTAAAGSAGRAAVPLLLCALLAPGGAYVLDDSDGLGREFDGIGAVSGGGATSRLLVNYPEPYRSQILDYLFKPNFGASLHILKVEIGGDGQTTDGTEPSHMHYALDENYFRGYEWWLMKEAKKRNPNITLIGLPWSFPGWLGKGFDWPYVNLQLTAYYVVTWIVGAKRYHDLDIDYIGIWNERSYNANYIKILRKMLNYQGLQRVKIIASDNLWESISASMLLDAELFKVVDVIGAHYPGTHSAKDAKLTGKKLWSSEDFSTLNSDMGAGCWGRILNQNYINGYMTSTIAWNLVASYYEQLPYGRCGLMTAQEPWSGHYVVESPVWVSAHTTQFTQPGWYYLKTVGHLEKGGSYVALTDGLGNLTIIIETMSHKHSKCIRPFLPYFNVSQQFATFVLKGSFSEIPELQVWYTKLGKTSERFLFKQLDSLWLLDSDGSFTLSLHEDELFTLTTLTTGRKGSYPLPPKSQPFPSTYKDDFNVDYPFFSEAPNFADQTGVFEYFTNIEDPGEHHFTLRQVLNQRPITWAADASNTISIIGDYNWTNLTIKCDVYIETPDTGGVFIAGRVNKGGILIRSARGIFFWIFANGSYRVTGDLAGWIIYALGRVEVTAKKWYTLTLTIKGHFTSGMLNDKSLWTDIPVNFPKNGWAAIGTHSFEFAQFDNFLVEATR
In short: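 Mutant human GALC (G270D), stably expressed in a Twitcher mouse brain cell line lacking endogenous GALC, is measured in live-treated cells via 6-hexadecanoylamino-4-methylumbelliferyl-β-galactoside hydrolysis (0.1 mM final, pH 5.2) with fluorescent detection.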

activation, inactive:
Cc1cc(C)c(S(=O)(=O)NCCS(=O)(=O)N2CCN(c3ccccc3)CC2)c(C)c1 -12.1%
Cc1ccccc1-c1nc2scc(CCNC(=O)c3ccco3)n2n1 -0.797%
COc1cccc(NC(=O)C2CCC(CNS(=O)(=O)c3ccc4c(c3)CCCC(=O)N4)CC2)c1 (configuration not stated) -12.1%
CCn1cc(CNC(=O)c2cc(-c3ccc(C)cc3)nc3ccc(Br)cc23)c(C)n1 7.41%
COc1cccc(NC(=O)C2CCN(c3ccc(Sc4ccc(C)cc4)nn3)CC2)c1 4.29%
O=C(NCc1ccccc1)C(=O)Nc1c2c(nn1-c1ccc(F)cc1)CSC2 -14%
COc1ccc(NC(=O)CN2C(=O)COc3ccc(S(=O)(=O)N4CCOCC4)cc32)cc1 27.8%
CCOc1ccc(CCNC(=O)C2CCCN(S(=O)(=O)N(C)c3ccc(F)cc3)C2)cc1 (configuration not stated) -10.8%
CCS(=O)(=O)N1CCc2cc(C(=O)NCc3ccccc3OC)ccc21 -14.8%
Cc1cccc(OCCSc2nnc(-c3cccs3)o2)c1 3.1%
Cc1ccc2nc(/C(C#N)=C/c3ccccc3F)[nH]c2c1 5.14%
Cc1sc2ncn(CC(=O)N3CCN(c4ccccc4F)CC3)c(=O)c2c1S(=O)(=O)N1CCC(C)CC1 -13%
O=C(CSc1nc(=O)n(Cc2ccco2)c2c1CCC2)NCc1ccccc1 -1.37%
Clc1ccccc1OCCSc1nnc(-c2cccs2)o1 -5.86%
CCc1ccc2oc(-c3ccc(C)c(NC(=O)/C=C/c4ccco4)c3)nc2c1 -9.57%
COc1ccccc1CNC(=O)C1CCN(c2nc3ccc(C)cc3[nH]2)CC1 3.34%
COc1ccc(Cl)cc1-n1cc(-c2ccccc2)nc1SCC(=O)Nc1ccc(C)cc1 -12.3%
O=C(NC1CCCC1)c1ccc2c(=O)n(Cc3ccccc3)c(SCc3ccccc3F)nc2c1 -8.84%
CCC(Cn1nnc2ccccc2c1=O)NC(=O)Nc1ccccc1OC (configuration not stated) -15.7%
COc1ccc(-c2cc(-c3ccc(C)cc3)nc3c2COc2ccccc2-3)cc1 -12.3%
Cc1ccc(S(=O)(=O)c2nc(-c3ccc(F)cc3)oc2SCC(=O)NC2CCCCC2)cc1 -32.2%
CCOc1ccc(CCNC(=O)c2cc3c(-c4ccccc4F)nn(C)c3s2)cc1 -13.5%
CCc1ccc(CNC(=O)CCCn2ccc3cc(S(=O)(=O)N4CCCC4)ccc32)cc1 17.6%
CCOC(=O)Cn1c(=N)n(Cc2ccc(C(C)(C)C)cc2)c2ccccc21 -1.63%
COc1ccc(C(=O)n2nc(N)c3cc4ccc(C)cc4nc32)cc1OC -14.8%
COCCNC(=O)CCCn1c(SCC(=O)Nc2ccc(F)cc2)nc2c(sc3ccccc32)c1=O -10.2%
Cc1nc2cc(-c3ccccc3)nn2c(C)c1CCC(=O)N1CCN(c2ccc(F)cc2)CC1 -10.7%
COC(=O)c1cc2oc(C)cc2n1Cc1ccccc1Cl -10.5%
Cc1ccc(CN2C(=O)C(O)(c3c(C)[nH]c4ccccc34)c3ccccc32)cc1 (configuration not stated) -3.34%
COc1ccc(NC(=O)C2CCC(CNS(=O)(=O)c3cccc4nsnc34)CC2)cc1OC (configuration not stated) -11.7%
Cc1cc2nc(-c3ccc(OCc4ccccc4C)cc3)cc(C(F)(F)F)n2n1 -8%
COc1cc(C2CC(=O)N(Cc3cccc(F)c3)c3ccccc3S2)cc(OC)c1OC (configuration not stated) 12.3%
Cc1cc(C)cc(-n2ccnc2SCC(=O)Nc2cccc3ccccc23)c1 -28.1%
COc1ccccc1C1NC(=O)c2n[nH]c(-c3cccs3)c21 (configuration not stated) -3.87%
CC1CCN(C(=O)c2c(NC(=O)c3ccccc3Cl)sc3c2CCC(C(C)(C)C)C3)CC1 (configuration not stated) -17.1%
CCN(C(=O)Cn1c(C(=O)OC)cc2sc(Cl)cc21)c1cccc(C)c1 -7.06%
CCc1ccc(S(=O)(=O)c2cn(CC(=O)Nc3ccc(F)c(Cl)c3)c3ccccc3c2=O)cc1 -11.2%
COc1ccc([N+](=O)[O-])cc1NC(c1nnc(-c2ccccc2)o1)c1ccccc1F (configuration not stated) -5.13%
CNC(=O)C1CCC(Cn2c(=O)c3sccc3n(Cc3cc(C)ccc3C)c2=O)CC1 (configuration not stated) -5.71%
Cc1ccccc1-c1nc(CN2CCCC(C(=O)NCc3ccc(Cl)cc3)C2)c(C)o1 (configuration not stated) -29.3%
COc1ccc(N2C(=O)NC(NS(=O)(=O)c3ccc(Cl)cc3)(C(F)(F)F)C2=O)cc1 (configuration not stated) -10.6%
NC(CS)C(=O)O (configuration not stated) -14.8%
Cc1ccc2nc(CN3CCN(C(=O)Nc4ccc(F)cc4)CC3)oc2c1 -4.13%
CSc1nc(NCCOC(C)=O)c(C#N)c(-c2ccc(C(C)(C)C)cc2)n1 -6.9%
COc1ccc(C2C(=O)N(C3CCCCC3)CC(=O)N2CCc2ccc(C)cc2)cc1OC (configuration not stated) -3.41%
CCOC(=O)c1c(NC(=O)c2cc(-c3ccccc3OC)on2)sc(C)c1C -2.66%
CCc1ccccc1NC(=O)Cn1nc2c3cc(F)ccc3n(Cc3cccc(C)c3)cc-2c1=O 2.2%
COc1ccc(NC(=O)CCc2c(C)nc3c(c2C)c(=O)n(C)c(=O)n3C)c(OC)c1 12.1%
O=C(COc1ccccc1F)Nc1ccc2nc(SCC(=O)N3CCc4ccccc43)sc2c1 -21.9%
COc1ccc(-c2nc3nc(C)cc(C)n3c2Nc2c(C)cccc2C)cc1 -19.7%
COc1ccccc1CNC(=O)C1(c2cccs2)CCOCC1 -15.6%
CCc1ccc2oc(C(=O)NCC(c3ccc(OC)cc3)N3CCCCC3)c(C)c2c1 (configuration not stated) -25.6%
CCOc1ccc(-c2cn3c(n2)sc2cc(C(=O)NCCCN4CCCCCC4)ccc23)cc1 -14%
CC1=C(C(=O)Nc2cccnc2)C(c2ccc(F)cc2)n2nc(-c3cccc(C)c3)nc2N1 (configuration not stated) -8.35%
Cc1cc(C)c2nc(N(Cc3cccnc3)C(=O)CCS(=O)(=O)c3ccccc3)sc2c1 -11.3%
Cc1cc(NC(=O)C2CCN(S(=O)(=O)c3c(C)noc3C)CC2)ccc1Br -11.1%
Cc1cccc(-n2ccnc2SCC(=O)Nc2cccc3ccccc23)c1 -41.7%
CCc1ccc(OCC(=O)Nc2ccc3c(c2)c2ccccc2n3CC)cc1 -8.51%
N#Cc1c[nH]n2c(NC3CCCCC3)c(-c3ccc(F)cc3)nc12 -12.7%
Oc1ccccc1-c1nc(-c2cccs2)c(-c2cccs2)[nH]1 -13.4%
O=C(COc1ccccc1Cl)Nc1ccc(OCc2cc(=O)n3ccsc3n2)cc1 -6.87%
Cc1cc(C)cc(OCCSc2nc3ccc(NC(=O)c4ccc5c(c4)OCO5)cc3s2)c1 16.5%
CCc1ccc2[nH]cc(S(=O)(=O)c3ccc(C(C)C)cc3)c(=O)c2c1 -13.3%
CCOC(=O)C1CCCN(S(=O)(=O)c2cc(-c3cc(C)no3)ccc2OC)C1 (configuration not stated) -20.5%
CC(C)CC(=O)Nc1ccc2nc(SCC(=O)N3CCc4ccccc43)sc2c1 -3.79%
CCOc1ccccc1CNC(=O)c1sc2ncccc2c1-n1cccc1 -18.7%
COc1ccccc1NC(=O)CSc1ncc2c(n1)-c1ccccc1N(Cc1ccccc1C)S2(=O)=O 1.56%
Cc1c(N)cccc1C(F)(F)F -15.4%
Cc1ccc(CN(C(=O)c2ccc(C(C)(C)C)cc2)c2ccccn2)o1 -34.8%
CCn1ccc2cc(S(=O)(=O)N3CCCN(C(=O)Nc4ccccc4F)CC3)ccc21 -3.63%
O=C(COC(=O)c1cc(-c2cccs2)nc2ccccc12)c1ccc(F)cc1 -14.1%
O=C(CSc1nnc(-c2ccc3c(c2)OCO3)o1)Oc1ccccc1 -8.57%
COc1cccc(Cn2c(SCC(=O)N3CCN(c4ccc(F)cc4)CC3)nc3ccccc32)c1 -6.69%
CCOc1cc(C2c3c(-c4cc(C)ccc4O)n[nH]c3C(=O)N2CCCOC(C)C)ccc1O (configuration not stated) -15.2%
Cc1ccc(Cn2cc(S(=O)(=O)c3cccc(C)c3)c(=O)c3cc(F)c(N4CCOCC4)cc32)cc1 -8.98%
COc1cccc(Cc2nc3ccccc3nc2SCC(=O)Nc2cccc(C)c2)c1 -7.02%
COc1ccc(CNC(=O)c2sc3nc4n(c(=O)c3c2C)CCCC4)cc1 -16.9%
O=C(Nc1cc(-c2ccccc2)sc1C(=O)O)c1cccc(F)c1 -1.56%
O=C(Cn1c(=O)n(Cc2nc(-c3ccccc3)no2)c(=O)c2cc3c(cc21)OCO3)Nc1ccccc1 -19.4%
CCC(C)n1c(=O)c2sccc2n2c(CCCC(=O)N3CCN(c4ccccc4)CC3)nnc12 (configuration not stated) -6.58%
CCOc1ccc(-n2c(SCC(=O)Nc3cc(C)ccc3C)nc3c([nH]c4ccccc43)c2=O)cc1 -8.71%
CC(C)c1ccc(NC(=O)CSC2=Nc3ccccc3C3=NC(CCC(=O)NC4CCCCC4)C(=O)N23)cc1 (configuration not stated) -9.09%
COc1ccc2c(c1)CCc1c(C(=O)Nc3cc(OC)c(Cl)cc3OC)noc1-2 -5.8%
COC(=O)c1cc(Nc2nc3ccccc3nc2NS(=O)(=O)c2ccc(C)cc2)ccc1Cl -15.3%
O=C(Cc1ccccc1)Nc1sc2c(c1C(=O)Nc1ccccc1Cl)CCCCC2 -3.28%
COc1ccc2cc([C@H](C)C(=O)O)ccc2c1 -2.11%
Cc1ccc(-n2c(=O)c3cccnc3n2CC(=O)NCc2ccc(Cl)cc2)cc1 -20.9%
Cc1ccc2oc3c(c(=O)c2c1)C(c1ccc(O)cc1)N(CCCN(C)C)C3=O (configuration not stated) 1.33%
COc1ccc(C(=O)Nc2cccc(C(=O)OCc3cc(=O)n4nc(C5CC5)sc4n3)c2)cc1 -14.4%
Cc1cc(F)ccc1NC(=O)C(c1ccccc1)N1Cc2ccccc2C1=O (configuration not stated) -17.8%
COC(=O)c1ccc([C@@H]2Nc3c(OC)ccc(C)c3[C@@H]3C=CC[C@@H]32)cc1 -5.64%
Nc1c(C(=O)Nc2ccc(F)cc2)sc2nc(-c3cccs3)cc(C(F)(F)F)c12 -13.6%
Cc1cccc(Nc2ncnc3onc(-c4ccc(Cl)cc4)c23)c1C -20.6%
O=C(CCS(=O)(=O)c1cc2c(cc1Cl)NC(=O)CO2)NCc1ccc(Cl)cc1 -5.65%
CCn1c2ccccc2c2cc(CN3CCN(Cc4ccc(Br)cc4)CC3)ccc21 -7.6%
CC1N=C2c3ccccc3N=C(SCC(=O)NCCc3ccc(Cl)cc3)N2C1=O (configuration not stated) -5.75%
CCOc1ccc(CC(=O)Nc2cccc(-c3nc4cccnc4s3)c2C)cc1 -13.7%
